Test results from PubChem BioAssay AID1346428 (National Center for Advancing Translational Sciences (NCATS), 2018).
The whole screen tested about 48,000 compounds, of which about 1,200 (2.5%) were called active. About 2% were inconclusive and are not listed.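 How the source made its calls: active means activation of at least 60% and not above a set upper limit (about 1 call in 100 departs from these limits); inconclusive means activation of 40% to 60%, or above that upper limit; inactive means activation under 40%.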 The list shows a part of the results.

Biological target: Probable G-protein coupled receptor 32 (Homo sapiens) (UniProt O75388)
Assay: qHTS for Agonists of Human Resolvin D1 Receptor DRV1; further: 0% is about no effect
Settings: CHO-K1 GPR32 beta-arrestin PathHunter luminescence, 90 min; at 76.9 µM; hits give high values; zero percent set by DMSO-only wells
Procedure, shortened: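 PathHunter beta-arrestin recruitment in CHO-K1 cells stably expressing ProLink-tagged GPR32. Cells were exposed to compound for 90 min at 37 C, then chemiluminescence was read after 1 h detection at ambient temperature; DMSO served as basal control.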

Sequence of UniProt O75388 (O75388 whole entry, looked up): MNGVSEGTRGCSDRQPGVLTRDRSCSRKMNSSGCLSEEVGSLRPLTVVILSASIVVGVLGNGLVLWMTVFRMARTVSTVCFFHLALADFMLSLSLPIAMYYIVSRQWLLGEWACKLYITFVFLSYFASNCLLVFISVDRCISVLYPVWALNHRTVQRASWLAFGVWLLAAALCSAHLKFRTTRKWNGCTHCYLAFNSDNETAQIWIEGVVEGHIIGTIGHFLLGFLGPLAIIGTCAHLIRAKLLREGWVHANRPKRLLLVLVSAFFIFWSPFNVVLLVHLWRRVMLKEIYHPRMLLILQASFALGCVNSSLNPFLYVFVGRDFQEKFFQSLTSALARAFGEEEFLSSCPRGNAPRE

activation, active:
CCCCCn1c(=O)[nH]c2cc(C(=O)N3CCN(c4cccc(C(F)(F)F)c4)CC3)ccc2c1=O 60.8%, O=C(Nc1nnc(S(=O)(=O)N2CCCc3ccccc32)s1)c1cccc(Cl)c1 73.8%

activation, inactive:
CCc1ccc(C(=O)c2cn(Cc3ccc(F)cc3)c3cc(OC)c(OC)cc3c2=O)cc1 -7.17%, Cc1cc(C)cc(Oc2nc3c(C)cccn3c(=O)c2/C=C(\C#N)c2nc3ccccc3s2)c1 -5.13%, COc1ccc(CCNC(=O)C(C)n2c(=O)cc(C(F)(F)F)c3c(C)nn(C)c32)cc1OC (configuration not stated) -10.3%, COc1ccc(N2CCN(Cc3nnc(-c4cccc(Br)c4)o3)CC2)cc1 -3.21%, COc1ccccc1Cc1nc2ccccc2nc1SCC(=O)N1CCN(c2ccccc2)CC1 -18.4%, Cc1ccc(C(C)C)c(OCCSc2nc3ccccc3n2CC(O)CO)c1 (configuration not stated) -9.07%, CC(=O)c1cc(-c2ccc(F)cc2)n(CC(=O)Nc2cc(C)cc(C)c2)c1C 0.952%, COc1ccc(CCn2c3c(c(=O)[nH]c2=O)C(NC(=O)c2ccc(C(C)(C)C)cc2)(C(F)(F)F)C(=O)N3)cc1OC (configuration not stated) 13%, COc1cccc(NC(=O)/C(C#N)=C/c2c(C)n(Cc3ccc(Cl)cc3)c3ccccc23)c1 1.66%, CC(C)Cn1c(-c2ccc(S(=O)(=O)N3CCOCC3)cc2)csc1=Nc1cc(Cl)ccc1Cl -2.44%, O=C(NCc1ccco1)c1ccc2c(c1)N(Cc1ccc(Cl)cc1)C(=O)c1ccccc1S2 -26.8%, CCOc1ccc(Nc2nc3c(S(=O)(=O)c4ccc(C(C)C)cc4)nnn3c3ccsc23)cc1 2.39%, Cc1cc2nc(-c3ccc(NC(=O)c4cc5ccccc5o4)cc3)oc2cc1C -3.47%, CCN(CC)S(=O)(=O)c1ccc2nc(NC(=O)c3cncc(Br)c3)sc2c1 7.48%, CCN(C(=O)c1cc2c(=O)oc3ccc(C)cc3c2s1)c1ccccc1C -3.94%, Cc1ccc(OCc2nc(-c3ccc(C(=O)NCc4ccc(OC(C)C)cc4)cc3)oc2C)cc1 11.8%, Cc1cccn2c(=O)c(C(=O)NC(C)c3ccccc3)cnc12 (configuration not stated) -16.4%, CCOc1ccc(N(C)S(=O)(=O)c2ccc3[nH]cc(C(=O)NCc4ccccc4)c(=O)c3c2)cc1 0.122%, Cc1nc2scc(C)n2c(=O)c1S(=O)(=O)NCCc1ccccc1 -0.243%, COc1ccc(Nc2oc(-c3ccc(COc4ccccc4C)o3)nc2C#N)cc1 -19.7%, Cc1cc(C)c(NC(=O)C(C)n2nnc3sc4c(c3c2=O)CCCC4)c(C)c1 (configuration not stated) -8.98%, Cc1cc(C)cc(N2C(=O)N(Cc3cccc(F)c3)c3ccccc3S2(=O)=O)c1 -14.6%, COc1ccc(N2CCN(C(=O)CSc3n[nH]c(-c4ccccc4Cl)n3)CC2)cc1 -10.9%, Cc1ccc(C(=O)c2cn(Cc3ccc(Cl)cc3)c3nc(C)ccc3c2=O)cc1 -3.52%, Cc1ccc(CNC(=O)c2cc(-c3ccc(Cl)cc3)on2)cc1 4.98%, CCN1CCN(c2ncc3c(n2)CC(c2ccccc2O)CC3=O)CC1 (configuration not stated) 3.94%, CCc1ccccc1NC(=O)Nc1nnc(N(CC)c2ccccc2)s1 5.21%, Cc1cc(NC(=O)CN2C(=O)c3cccnc3Sc3ccccc32)ccc1Br -8.15%, COc1ccc(OC)c2sc(N(Cc3cccnc3)C(=O)c3ccco3)nc12 -16.3%, CN(C)c1ccc(CNC(=O)CN2CCSc3ccc(S(=O)(=O)N(C)C)cc32)cc1 -4.7%, Cc1ccc2oc(=O)c(S(=O)(=O)c3ccc(C(C)(C)C)cc3)cc2c1 15.2%, CCN(c1ccccc1)S(=O)(=O)c1nnc(NC(=O)COc2cccc(C)c2)s1 3.3%, Cc1ccc(NC(=O)C2CCN(c3nn4cc(-c5ccc(C)cc5)nc4s3)CC2)cc1 -5.38%, Cc1ccc(CNC(=O)CNS(=O)(=O)c2cccs2)cc1 25.8%, CCOc1ccc(NC(=O)Cn2c(=O)n(CC(=O)NCc3ccccc3Cl)c(=O)c3sccc32)cc1 11.1%, COc1ccc(CNC(=O)c2oc3c(c2C)-c2nn(Cc4ccc(Cl)cc4)cc2CC3)cc1 10.1%, CC(C)(C)c1ccc(C(=O)Nc2sc3c(c2C#N)CCC(C(C)(C)C)C3)cc1 (configuration not stated) -1.92%, O=C(Nc1ccc(Br)cc1)C1CCCN1S(=O)(=O)c1ccc(F)cc1 (configuration not stated) -4.39%, CCN(CCCNC(=O)Cn1ncc2c3ccccc3n(C)c2c1=O)Cc1ccccc1 -3.31%, CCCSc1ncc(Cl)c(C(=O)Nc2ccc(S(=O)(=O)N(C)c3ccccc3)cc2)n1 -22.5%, CCCCC/C=C\CC(O)/C=C/c1cccc(CC(O)CCCCO)n1 (configuration not stated) -7.65%, COC(=O)c1ccc(C2c3c(-c4ccccc4O)n[nH]c3C(=O)N2Cc2cccnc2)cc1 (configuration not stated) -17.2%, COc1ccc(Cn2c(C(=O)O)c(CNCc3ccccc3F)c3ccc(OC)cc32)cc1 -4.6%, COc1cccc(C2C(C(=O)Nc3ccc(C)cc3C)=C(C)Nc3c(C(=O)Nc4ccccc4)cnn32)c1 (configuration not stated) -17.1%, CCc1ccc(NC(=O)CSc2nc(=O)n(Cc3ccccn3)c3c2CCC3)cc1 0.0906%, CC1CCCN(C(=O)CSc2c3c(nc4cc(Cl)ccc24)CCCC3)C1 (configuration not stated) -9.01%, O=C(Nc1cc(-c2nc3cc(Cl)ccc3o2)ccc1Cl)c1ccco1 11.4%, NS(=O)(=O)c1cc(C(=O)O)c(NCc2ccco2)cc1Cl -4.65%, CCc1cccc(C)c1NS(=O)(=O)c1c(C(=O)N2CCC(C)CC2)c(C)n(C)c1C -17.9%, COc1ccc(S(=O)(=O)N2CCC(C(=O)Nc3ccc(Oc4ccccc4)cc3)CC2)cc1 -3.93%
